Laboratory results from the CheMixHub viscosity set.
Where “and” joins values, the source holds several entries; their conditions need not be identical. Identical values can stand only once. ± gives the uncertainty stated by the source. The source gives many values for each of these; only a part stands here.

Assay: xn = mol fraction of the nth substance listed

CC(C)(C)O + O
Conditions	viscosity
298 K, 101 kPa, x1 = 0.005	0.976 ± 0.013 mPa·s
298 K, 101 kPa, x1 = 0.01	1.076 ± 0.013 mPa·s
298 K, 101 kPa, x1 = 0.03	1.566 ± 0.016 mPa·s
298 K, 101 kPa, x1 = 0.05	2.117 ± 0.02 mPa·s
298 K, 101 kPa, x1 = 0.08	2.777 ± 0.026 mPa·s
298 K, 101 kPa, x1 = 0.1	3.243 ± 0.029 mPa·s
298 K, 101 kPa, x1 = 0.15	3.857 ± 0.035 mPa·s
298 K, 101 kPa, x1 = 0.2	4.342 ± 0.039 mPa·s
298 K, 101 kPa, x1 = 0.25	4.615 ± 0.041 mPa·s
298 K, 101 kPa, x1 = 0.3	4.747 ± 0.042 mPa·s
298 K, 101 kPa, x1 = 0.35	4.838 ± 0.043 mPa·s
298 K, 101 kPa, x1 = 0.4	4.815 ± 0.043 mPa·s
298 K, 101 kPa, x1 = 0.5	4.698 ± 0.042 mPa·s
298 K, 101 kPa, x1 = 0.6	4.494 ± 0.04 mPa·s
298 K, 101 kPa, x1 = 0.7	4.298 ± 0.039 mPa·s
298 K, 101 kPa, x1 = 0.8	4.152 ± 0.038 mPa·s
298 K, 101 kPa, x1 = 0.85	4.106 ± 0.038 mPa·s
298 K, 101 kPa, x1 = 0.88	4.108 ± 0.038 mPa·s
298 K, 101 kPa, x1 = 0.9	4.113 ± 0.039 mPa·s
298 K, 101 kPa, x1 = 0.92	4.114 ± 0.039 mPa·s
298 K, 101 kPa, x1 = 0.95	4.167 ± 0.039 mPa·s
298 K, 101 kPa, x1 = 0.97	4.215 ± 0.037 mPa·s
298 K, 101 kPa, x1 = 0.98	4.249 ± 0.036 mPa·s
298 K, 101 kPa, x2 = 0.01	4.284 ± 0.036 mPa·s
298.15 K, 100 kPa, x1 = 0.00982	1.087 ± 0.024 mPa·s and 1.089 ± 0.024 mPa·s
298.15 K, 100 kPa, x1 = 0.02462	1.453 ± 0.033 mPa·s
298.15 K, 100 kPa, x1 = 0.05982	2.38 ± 0.058 mPa·s and 2.383 ± 0.058 mPa·s
298.15 K, 100 kPa, x1 = 0.09495	3.106 ± 0.077 mPa·s and 3.12 ± 0.077 mPa·s
298.15 K, 101 kPa, x1 = 0.021	1.34 ± 0.01 mPa·s
298.15 K, 101 kPa, x1 = 0.0267	1.46 ± 0.01 mPa·s
298.15 K, 101 kPa, x1 = 0.043	1.93 ± 0.02 mPa·s
298.15 K, 101 kPa, x1 = 0.073	2.64 ± 0.03 mPa·s
298.15 K, 101 kPa, x1 = 0.0795	2.7 ± 0.03 mPa·s
298.15 K, 101 kPa, x1 = 0.1	3.194 ± 0.046 mPa·s
298.15 K, 101 kPa, x1 = 0.1376	3.61 ± 0.03 mPa·s
298.15 K, 101 kPa, x1 = 0.14	3.79 ± 0.04 mPa·s
298.15 K, 101 kPa, x1 = 0.2001	4.456 ± 0.065 mPa·s
298.15 K, 101 kPa, x1 = 0.235	4.44 ± 0.04 mPa·s
298.15 K, 101 kPa, x1 = 0.266	4.71 ± 0.06 mPa·s
298.15 K, 101 kPa, x1 = 0.3	4.939 ± 0.072 mPa·s
298.15 K, 101 kPa, x1 = 0.33	4.66 ± 0.05 mPa·s
298.15 K, 101 kPa, x1 = 0.392	4.8 ± 0.07 mPa·s
298.15 K, 101 kPa, x1 = 0.3935	4.67 ± 0.05 mPa·s
298.15 K, 101 kPa, x1 = 0.3997	5.022 ± 0.074 mPa·s
298.15 K, 101 kPa, x1 = 0.5001	4.926 ± 0.073 mPa·s
298.15 K, 101 kPa, x1 = 0.5039	4.55 ± 0.05 mPa·s
298.15 K, 101 kPa, x1 = 0.584	4.58 ± 0.08 mPa·s
298.15 K, 101 kPa, x1 = 0.5989	4.752 ± 0.071 mPa·s
298.15 K, 101 kPa, x1 = 0.6	4.37 ± 0.04 mPa·s
298.15 K, 101 kPa, x1 = 0.6995	4.57 ± 0.069 mPa·s
298.15 K, 101 kPa, x1 = 0.7005	4.19 ± 0.04 mPa·s
298.15 K, 101 kPa, x1 = 0.7978	4.399 ± 0.068 mPa·s
298.15 K, 101 kPa, x1 = 0.7984	4.05 ± 0.04 mPa·s
298.15 K, 101 kPa, x1 = 0.8976	4.352 ± 0.067 mPa·s
298.15 K, 101 kPa, x1 = 0.8987	4 ± 0.04 mPa·s
303.15 K, 101 kPa, x1 = 0.098	2.482 ± 0.022 mPa·s
303.15 K, 101 kPa, x1 = 0.1	2.578 ± 0.039 mPa·s
303.15 K, 101 kPa, x1 = 0.2001	3.548 ± 0.053 mPa·s
303.15 K, 101 kPa, x1 = 0.217	3.581 ± 0.03 mPa·s
303.15 K, 101 kPa, x1 = 0.3	3.935 ± 0.059 mPa·s
303.15 K, 101 kPa, x1 = 0.301	3.894 ± 0.032 mPa·s
303.15 K, 101 kPa, x1 = 0.3997	3.983 ± 0.06 mPa·s
303.15 K, 101 kPa, x1 = 0.445	3.915 ± 0.031 mPa·s
303.15 K, 101 kPa, x1 = 0.5	3.811 ± 0.03 mPa·s
303.15 K, 101 kPa, x1 = 0.5001	3.897 ± 0.059 mPa·s
303.15 K, 101 kPa, x1 = 0.592	3.646 ± 0.028 mPa·s
303.15 K, 101 kPa, x1 = 0.5989	3.749 ± 0.057 mPa·s
303.15 K, 101 kPa, x1 = 0.694	3.488 ± 0.027 mPa·s
303.15 K, 101 kPa, x1 = 0.6995	3.594 ± 0.056 mPa·s
303.15 K, 101 kPa, x1 = 0.79	3.33 ± 0.025 mPa·s
303.15 K, 101 kPa, x1 = 0.7978	3.451 ± 0.054 mPa·s
303.15 K, 101 kPa, x1 = 0.8976	3.38 ± 0.053 mPa·s
303.15 K, 101 kPa, x1 = 0.905	3.258 ± 0.025 mPa·s
308 K, 101 kPa, x1 = 0.001	0.731 ± 0.012 mPa·s
308 K, 101 kPa, x1 = 0.005	0.783 ± 0.012 mPa·s
308 K, 101 kPa, x1 = 0.01	0.855 ± 0.012 mPa·s
308 K, 101 kPa, x1 = 0.02	1.007 ± 0.013 mPa·s
308 K, 101 kPa, x1 = 0.03	1.175 ± 0.014 mPa·s
308 K, 101 kPa, x1 = 0.04	1.336 ± 0.014 mPa·s
308 K, 101 kPa, x1 = 0.05	1.501 ± 0.016 mPa·s
308 K, 101 kPa, x1 = 0.06	1.651 ± 0.016 mPa·s
308 K, 101 kPa, x1 = 0.08	1.926 ± 0.018 mPa·s
308 K, 101 kPa, x1 = 0.1	2.178 ± 0.02 mPa·s
308 K, 101 kPa, x1 = 0.15	2.724 ± 0.024 mPa·s
308 K, 101 kPa, x1 = 0.2	2.944 ± 0.026 mPa·s
308 K, 101 kPa, x1 = 0.25	3.109 ± 0.027 mPa·s
308 K, 101 kPa, x1 = 0.3	3.209 ± 0.028 mPa·s
308 K, 101 kPa, x1 = 0.35	3.209 ± 0.028 mPa·s
308 K, 101 kPa, x1 = 0.4	3.208 ± 0.028 mPa·s
308 K, 101 kPa, x1 = 0.5	3.077 ± 0.027 mPa·s
308 K, 101 kPa, x1 = 0.6	2.957 ± 0.026 mPa·s
308 K, 101 kPa, x1 = 0.7	2.801 ± 0.025 mPa·s
308 K, 101 kPa, x1 = 0.8	2.678 ± 0.025 mPa·s
308 K, 101 kPa, x1 = 0.85	2.636 ± 0.024 mPa·s
308 K, 101 kPa, x1 = 0.88	2.613 ± 0.024 mPa·s
308 K, 101 kPa, x1 = 0.9	2.603 ± 0.024 mPa·s
308 K, 101 kPa, x1 = 0.92	2.594 ± 0.024 mPa·s
308 K, 101 kPa, x1 = 0.95	2.59 ± 0.024 mPa·s
